Measurements: PMC9352240, “Selective Detection of Misfolded Tau From Postmortem Alzheimer’s Disease Brains” (Frontiers in Aging Neuroscience, 2022)

How the values were obtained:
[1] = target: misfolded tau seeds from postmortem Alzheimer's disease brain homogenates (human (endogenous in postmortem brain)); test: cell-based or functional assay
[2] = target: the molecule itself; test: thioflavin T fluorescence aggregation kinetics; self-aggregation of recombinant tau alone; 30 uM tau, 60 ug/ml heparin, 10 uM ThT, 20 mM Tris pH 7.4, 37°C; t1/2 = time to half maximum ThT intensity
[3] = target: the molecule itself; test: transmission electron microscopy of fibrils (negative stain); self-assembly into fibrils; 30 uM tau in 20 mM Tris pH 7.4 with 0.06 mg/ml heparin, 37°C, 10-12 days, uranyl acetate stain

Binder | RT-QuIC (ThT fluorescence): t1/2 of seeded aggregation of 12 uM substrate with AD brain homogenate [1] [h] | t1/2 of self-aggregation (ThT fluorescence) [2] [h] | binding result [3]
recombinant full-length wild-type human tau isoform 1N3R (natural protein, source: E. coli BL21-DE3, purified (boiling at 90°C, Ni-NTA, size exclusion Superdex75 and Superdex200); not shown: His6, C-terminal, kept) not shown | 22.3 | 4.3 | –
recombinant full-length wild-type human tau isoform 2N3R (natural protein) not shown | 23.8 | – | –
4RCF tau (four microtubule-binding repeats, cysteine-free; 2N4R […] with C291S and C322S) (domain or fragment, human tau (MAPT), the four repeat segments R1-R4, […]; numbers count on: the 2N4R isoform; Cloned with NdeI and XhoI into the same vector as the isoforms; also called truncation mutant 4RCF; tau fragment 4RCF; source: E. coli BL21-DE3, purified (Ni-NTA, size exclusion Superdex75 and Superdex200); not shown: His6, C-terminal, kept) not shown | – | – | binds
